Enrichment data for 12 sequences are collected here from the supplement of paper PMC12230231.

± gives the standard deviation of the averaged measurements. Restriction of a single-cycle SIVsab GFP reporter by TRIM5α v1-loop variants in CRFK cells. Human variants: read share among cells still uninfected after two challenges over input, higher = gained restriction. Rhesus variants: share among infected cells over input, higher = lost restriction. Reporter dose not given per row. No active / inactive call per row; the paper calls a change when both replicates lie above its controls (mean + 2 SD of stop or wild-type variants, or the top frameshift score). Residues outside the varied loop are taken from Swiss-Prot. The paper reads the human single-substitution scores as noise; they and the rhesus combinations repeat poorly (rank correlation 0.3 to 0.4), indel scores repeat only for the top variants, rhesus substitutions well (0.9).

The subject of the series is SIVsab (simian immunodeficiency virus of sabaeus monkeys), single-cycle GFP reporter, in CRFK cells. The series is described as follows: enrichment among uninfected cells over input (fold); higher = stronger restriction. The following applies: library: human / rhesus combinations. The protocol:
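Pools of CRFK cells expressing variants of the TRIM5α v1 loop were challenged with the single-cycle reporter, sorted by GFP and sequenced; mean of two replicates.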
In the case of “MASGILVNVKEEVTCPICLELLTQPLSLDCGHSFCQACLTANHKKSMLDKGESSCPVCRISYQPENIRPNRHVANIVEKLREVKLSPEGQKVDHCARHGEKLLLFCQEDGKVICWLCERSQEHRGHHTFLTEEVAREYQVKLQAALEMLRQKQQEAEELEADIREEKASWKTQIQYDKTNVLADFEQLRDILDWEESNELQNLEKEEEDILKSLTNSETEMVQQTQSLRELISDLEHRLQGSVMELLQGVDGVIKRTENVTLKKPETFPKNQRRVFRAPDLKGMLEVFRELTDVRRYWVDVTVAPNNISCAVISEDKRQVSSPKPQIIYQAPGTRFTFQSLTNFNYCTGILGSQSITSGKHYWEVDVSKKTAWILGVCAGFQPDAMCNIEKNENYQPKYGYWVIGLEEGVKCSAFQDSSFHTPSVPFIVPLSVIICPDRVGVFLDYEACTVSFFNITNHGFLIYKFSHCSFSQPVFPYLNPRKCGVPMTLCSPSS [human TRIM5α, 330-340 = QAPGTRFTFQSLT]”, the enrichment is 1.75 ± 0.7.
Turning to “MASGILVNVKEEVTCPICLELLTQPLSLDCGHSFCQACLTANHKKSMLDKGESSCPVCRISYQPENIRPNRHVANIVEKLREVKLSPEGQKVDHCARHGEKLLLFCQEDGKVICWLCERSQEHRGHHTFLTEEVAREYQVKLQAALEMLRQKQQEAEELEADIREEKASWKTQIQYDKTNVLADFEQLRDILDWEESNELQNLEKEEEDILKSLTNSETEMVQQTQSLRELISDLEHRLQGSVMELLQGVDGVIKRTENVTLKKPETFPKNQRRVFRAPDLKGMLEVFRELTDVRRYWVDVTVAPNNISCAVISEDKRQVSSPKPQIIYQAPGTRFTFQSLVNFNYCTGILGSQSITSGKHYWEVDVSKKTAWILGVCAGFQPDAMCNIEKNENYQPKYGYWVIGLEEGVKCSAFQDSSFHTPSVPFIVPLSVIICPDRVGVFLDYEACTVSFFNITNHGFLIYKFSHCSFSQPVFPYLNPRKCGVPMTLCSPSS [human TRIM5α, 330-340 = QAPGTRFTFQSLV]”, the enrichment is 0.106 ± 0.075.
With “MASGILVNVKEEVTCPICLELLTQPLSLDCGHSFCQACLTANHKKSMLDKGESSCPVCRISYQPENIRPNRHVANIVEKLREVKLSPEGQKVDHCARHGEKLLLFCQEDGKVICWLCERSQEHRGHHTFLTEEVAREYQVKLQAALEMLRQKQQEAEELEADIREEKASWKTQIQYDKTNVLADFEQLRDILDWEESNELQNLEKEEEDILKSLTNSETEMVQQTQSLRELISDLEHRLQGSVMELLQGVDGVIKRTENVTLKKPETFPKNQRRVFRAPDLKGMLEVFRELTDVRRYWVDVTVAPNNISCAVISEDKRQVSSPKPQIIYQAPGTRFTFQTFTNFNYCTGILGSQSITSGKHYWEVDVSKKTAWILGVCAGFQPDAMCNIEKNENYQPKYGYWVIGLEEGVKCSAFQDSSFHTPSVPFIVPLSVIICPDRVGVFLDYEACTVSFFNITNHGFLIYKFSHCSFSQPVFPYLNPRKCGVPMTLCSPSS [human TRIM5α, 330-340 = QAPGTRFTFQTFT]”, the enrichment is 1.28 ± 0.084.
“MASGILVNVKEEVTCPICLELLTQPLSLDCGHSFCQACLTANHKKSMLDKGESSCPVCRISYQPENIRPNRHVANIVEKLREVKLSPEGQKVDHCARHGEKLLLFCQEDGKVICWLCERSQEHRGHHTFLTEEVAREYQVKLQAALEMLRQKQQEAEELEADIREEKASWKTQIQYDKTNVLADFEQLRDILDWEESNELQNLEKEEEDILKSLTNSETEMVQQTQSLRELISDLEHRLQGSVMELLQGVDGVIKRTENVTLKKPETFPKNQRRVFRAPDLKGMLEVFRELTDVRRYWVDVTVAPNNISCAVISEDKRQVSSPKPQIIYQAPGTRFTFQTFVNFNYCTGILGSQSITSGKHYWEVDVSKKTAWILGVCAGFQPDAMCNIEKNENYQPKYGYWVIGLEEGVKCSAFQDSSFHTPSVPFIVPLSVIICPDRVGVFLDYEACTVSFFNITNHGFLIYKFSHCSFSQPVFPYLNPRKCGVPMTLCSPSS [human TRIM5α, 330-340 = QAPGTRFTFQTFV]”: the enrichment was determined as 0.292 ± 0.19.
Then “MASGILVNVKEEVTCPICLELLTQPLSLDCGHSFCQACLTANHKKSMLDKGESSCPVCRISYQPENIRPNRHVANIVEKLREVKLSPEGQKVDHCARHGEKLLLFCQEDGKVICWLCERSQEHRGHHTFLTEEVAREYQVKLQAALEMLRQKQQEAEELEADIREEKASWKTQIQYDKTNVLADFEQLRDILDWEESNELQNLEKEEEDILKSLTNSETEMVQQTQSLRELISDLEHRLQGSVMELLQGVDGVIKRTENVTLKKPETFPKNQRRVFRAPDLKGMLEVFRELTDVRRYWVDVTVAPNNISCAVISEDKRQVSSPKPQIIYQAPGTRFTFQTLTNFNYCTGILGSQSITSGKHYWEVDVSKKTAWILGVCAGFQPDAMCNIEKNENYQPKYGYWVIGLEEGVKCSAFQDSSFHTPSVPFIVPLSVIICPDRVGVFLDYEACTVSFFNITNHGFLIYKFSHCSFSQPVFPYLNPRKCGVPMTLCSPSS [human TRIM5α, 330-340 = QAPGTRFTFQTLT]”, with 0.235 ± 0.17; and “MASGILVNVKEEVTCPICLELLTQPLSLDCGHSFCQACLTANHKKSMLDKGESSCPVCRISYQPENIRPNRHVANIVEKLREVKLSPEGQKVDHCARHGEKLLLFCQEDGKVICWLCERSQEHRGHHTFLTEEVAREYQVKLQAALEMLRQKQQEAEELEADIREEKASWKTQIQYDKTNVLADFEQLRDILDWEESNELQNLEKEEEDILKSLTNSETEMVQQTQSLRELISDLEHRLQGSVMELLQGVDGVIKRTENVTLKKPETFPKNQRRVFRAPDLKGMLEVFRELTDVRRYWVDVTVAPNNISCAVISEDKRQVSSPKPQIIYQAPGTRFTFQTLVNFNYCTGILGSQSITSGKHYWEVDVSKKTAWILGVCAGFQPDAMCNIEKNENYQPKYGYWVIGLEEGVKCSAFQDSSFHTPSVPFIVPLSVIICPDRVGVFLDYEACTVSFFNITNHGFLIYKFSHCSFSQPVFPYLNPRKCGVPMTLCSPSS [human TRIM5α, 330-340 = QAPGTRFTFQTLV]”, with 0.106 ± 0.12; and “MASGILVNVKEEVTCPICLELLTQPLSLDCGHSFCQACLTANHKKSMLDKGESSCPVCRISYQPENIRPNRHVANIVEKLREVKLSPEGQKVDHCARHGEKLLLFCQEDGKVICWLCERSQEHRGHHTFLTEEVAREYQVKLQAALEMLRQKQQEAEELEADIREEKASWKTQIQYDKTNVLADFEQLRDILDWEESNELQNLEKEEEDILKSLTNSETEMVQQTQSLRELISDLEHRLQGSVMELLQGVDGVIKRTENVTLKKPETFPKNQRRVFRAPDLKGMLEVFRELTDVRRYWVDVTVAPNNISCAVISEDKRQVSSPKPQIIYQAPGTRYPSFVNFNYCTGILGSQSITSGKHYWEVDVSKKTAWILGVCAGFQPDAMCNIEKNENYQPKYGYWVIGLEEGVKCSAFQDSSFHTPSVPFIVPLSVIICPDRVGVFLDYEACTVSFFNITNHGFLIYKFSHCSFSQPVFPYLNPRKCGVPMTLCSPSS [human TRIM5α, 330-340 = QAPGTRYPSFV]”, with 0.00996 ± 0.0096.
Then “MASGILVNVKEEVTCPICLELLTQPLSLDCGHSFCQACLTANHKKSMLDKGESSCPVCRISYQPENIRPNRHVANIVEKLREVKLSPEGQKVDHCARHGEKLLLFCQEDGKVICWLCERSQEHRGHHTFLTEEVAREYQVKLQAALEMLRQKQQEAEELEADIREEKASWKTQIQYDKTNVLADFEQLRDILDWEESNELQNLEKEEEDILKSLTNSETEMVQQTQSLRELISDLEHRLQGSVMELLQGVDGVIKRTENVTLKKPETFPKNQRRVFRAPDLKGMLEVFRELTDVRRYWVDVTVAPNNISCAVISEDKRQVSSPKPQIIYQAPGTRYPSLVNFNYCTGILGSQSITSGKHYWEVDVSKKTAWILGVCAGFQPDAMCNIEKNENYQPKYGYWVIGLEEGVKCSAFQDSSFHTPSVPFIVPLSVIICPDRVGVFLDYEACTVSFFNITNHGFLIYKFSHCSFSQPVFPYLNPRKCGVPMTLCSPSS [human TRIM5α, 330-340 = QAPGTRYPSLV]”, with 0.927 ± 0.72; and “MASGILVNVKEEVTCPICLELLTQPLSLDCGHSFCQACLTANHKKSMLDKGESSCPVCRISYQPENIRPNRHVANIVEKLREVKLSPEGQKVDHCARHGEKLLLFCQEDGKVICWLCERSQEHRGHHTFLTEEVAREYQVKLQAALEMLRQKQQEAEELEADIREEKASWKTQIQYDKTNVLADFEQLRDILDWEESNELQNLEKEEEDILKSLTNSETEMVQQTQSLRELISDLEHRLQGSVMELLQGVDGVIKRTENVTLKKPETFPKNQRRVFRAPDLKGMLEVFRELTDVRRYWVDVTVAPNNISCAVISEDKRQVSSPKPQIIYQAPGTRYPTLVNFNYCTGILGSQSITSGKHYWEVDVSKKTAWILGVCAGFQPDAMCNIEKNENYQPKYGYWVIGLEEGVKCSAFQDSSFHTPSVPFIVPLSVIICPDRVGVFLDYEACTVSFFNITNHGFLIYKFSHCSFSQPVFPYLNPRKCGVPMTLCSPSS [human TRIM5α, 330-340 = QAPGTRYPTLV]”, with 0.00418 ± 0.0028; and “MASGILVNVKEEVTCPICLELLTQPLSLDCGHSFCQACLTANHKKSMLDKGESSCPVCRISYQPENIRPNRHVANIVEKLREVKLSPEGQKVDHCARHGEKLLLFCQEDGKVICWLCERSQEHRGHHTFLTEEVAREYQVKLQAALEMLRQKQQEAEELEADIREEKASWKTQIQYDKTNVLADFEQLRDILDWEESNELQNLEKEEEDILKSLTNSETEMVQQTQSLRELISDLEHRLQGSVMELLQGVDGVIKRTENVTLKKPETFPKNQRRVFRAPDLKGMLEVFRELTDVRRYWVDVTVAPNNISCAVISEDKRQVSSPKPQIIYQAPGTRYQSFVNFNYCTGILGSQSITSGKHYWEVDVSKKTAWILGVCAGFQPDAMCNIEKNENYQPKYGYWVIGLEEGVKCSAFQDSSFHTPSVPFIVPLSVIICPDRVGVFLDYEACTVSFFNITNHGFLIYKFSHCSFSQPVFPYLNPRKCGVPMTLCSPSS [human TRIM5α, 330-340 = QAPGTRYQSFV]”, with 0.258 ± 0.35.
Consider “MASGILVNVKEEVTCPICLELLTQPLSLDCGHSFCQACLTANHKKSMLDKGESSCPVCRISYQPENIRPNRHVANIVEKLREVKLSPEGQKVDHCARHGEKLLLFCQEDGKVICWLCERSQEHRGHHTFLTEEVAREYQVKLQAALEMLRQKQQEAEELEADIREEKASWKTQIQYDKTNVLADFEQLRDILDWEESNELQNLEKEEEDILKSLTNSETEMVQQTQSLRELISDLEHRLQGSVMELLQGVDGVIKRTENVTLKKPETFPKNQRRVFRAPDLKGMLEVFRELTDVRRYWVDVTVAPNNISCAVISEDKRQVSSPKPQIIYQAPGTRYQTLVNFNYCTGILGSQSITSGKHYWEVDVSKKTAWILGVCAGFQPDAMCNIEKNENYQPKYGYWVIGLEEGVKCSAFQDSSFHTPSVPFIVPLSVIICPDRVGVFLDYEACTVSFFNITNHGFLIYKFSHCSFSQPVFPYLNPRKCGVPMTLCSPSS [human TRIM5α, 330-340 = QAPGTRYQTLV]”, for which the enrichment was 0.0132 ± 0.0035.
For “MASGILVNVKEEVTCPICLELLTQPLSLDCGHSFCQACLTANHKKSMLDKGESSCPVCRISYQPENIRPNRHVANIVEKLREVKLSPEGQKVDHCARHGEKLLLFCQEDGKVICWLCERSQEHRGHHTFLTEEVAREYQVKLQAALEMLRQKQQEAEELEADIREEKASWKTQIQYDKTNVLADFEQLRDILDWEESNELQNLEKEEEDILKSLTNSETEMVQQTQSLRELISDLEHRLQGSVMELLQGVDGVIKRTENVTLKKPETFPKNQRRVFRAPDLKGMLEVFRELTDVRRYWVDVTVAPNNISCAVISEDKRQVSSPKPQIIYQAPGTRYTFPSFTNFNYCTGILGSQSITSGKHYWEVDVSKKTAWILGVCAGFQPDAMCNIEKNENYQPKYGYWVIGLEEGVKCSAFQDSSFHTPSVPFIVPLSVIICPDRVGVFLDYEACTVSFFNITNHGFLIYKFSHCSFSQPVFPYLNPRKCGVPMTLCSPSS [human TRIM5α, 330-340 = QAPGTRYTFPSFT]” the value was 0.381 ± 0.036.
